According to PubChem BioAssay AID504832 (National Center for Advancing Translational Sciences (NCATS), 2011):
Hit rate of the full screen: of about 310,000 compounds, about 18,000 (5.8%) were called active. The shares of active, inactive and inconclusive entries below differ from those in the screen. Calls follow the shape of the dose curve; as a rule, active = well fitted inhibition curve with a large enough effect; inconclusive = small, poorly fitted or top-dose-only effect, or another doubt; inactive = no such curve, though single readings can be large or run the other way. No potency is given beside an inconclusive call; the fits are too rough.

assay: Primary qHTS for delayed death inhibitors of the malarial parasite plastid, 48 hour incubation; settings: P. falciparum luciferase growth in erythrocytes; series mostly up to 28.7 µM
How it was run: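 Growth was read as firefly luciferase luminescence after a 48 h, 37 C, 5% CO2 exposure of compounds to reporter-bearing P. falciparum cultures (0.1% parasitemia, 2% hematocrit final) in Albumax-supplemented RPMI 1640.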
Potency is read from the fitted curve at half-maximal effect; tags tell the direction and shape of the fitted curve.

Row | Compound | Potency
1 | N#Cc1ccc(OCC(=O)Nc2ccncc2)cc1 | inconclusive [inhibitor, single point]
2 | COc1ccc(CCNC(=O)CSc2nnc3ccccn23)cc1 | inconclusive [inhibitor, single point]
3 | COc1cc(C2OC(=O)c3ccccc3S2)cc(OC)c1OC (stereo not given) | inactive
4 | CCCC[C@]12Cc3ccccc3[C@H](O1)C1=C(O2)C(=O)c2ccccc2C1=O | inconclusive [inhibitor, partial curve, poor fit]
5 | Cc1csc2nc(O)c(C(=O)NC3CCCCC3)c(=O)n12 | active: 11.7 µM
6 | Cc1cccc(-c2nnc(N)s2)c1 | inactive
7 | CSc1sc(C)cc1C1C(C#N)=C(N)N(c2cccnc2)C2=C1C(=O)CCC2 (stereo not given) | inconclusive [inhibitor, full curve]
8 | O=C(C1=C[C@H](c2csc3ccccc23)C[C@H](OCCCCO)O1)N1CCN(Cc2ccc3c(c2)OCO3)CC1 | active: 2.33 µM
9 | C/C(O)=C\c1nc2ccccc2oc1=O | inconclusive [inhibitor, partial curve]
10 | O=C(Nc1cccnc1Cl)c1cc([N+](=O)[O-])ccc1Cl | inactive
11 | O=C1NCCCC1C(=O)N/N=C/c1cccc(Cl)c1 (stereo not given) | inconclusive [inhibitor, partial curve, poor fit]
12 | CC(=O)Nc1sc2c(c1C(c1ccccn1)N1CCCC1)CCCC2 (stereo not given) | active: 9.28 µM
13 | Cc1cc(C)nc(NS(=O)(=O)c2ccc(NC(=O)c3snnc3C)cc2)n1 | inactive
14 | O=[N+]([O-])c1ccc(OCC(O)CN(C2CCCCC2)C2CCCCC2)cc1 (stereo not given) | inconclusive [inhibitor, full curve, poor fit]
15 | Cc1cc(C)c(S(=O)(=O)N2CCCOC2CNC(=O)C(=O)NCCc2c[nH]c3ccccc23)c(C)c1 (stereo not given) | inconclusive [inhibitor, partial curve, poor fit]
16 | Cc1csc(SCC(=O)Nc2cc(S(=O)(=O)N3CCOCC3)ccc2N2CCOCC2)n1 | inconclusive [inhibitor, single point]
17 | Cc1ccc(C)c(NC2=NC3(CCCCC3)N=C(N)N2)c1 | inconclusive [inhibitor, partial curve]
18 | COc1cc(/C=N/NC(=O)CN2CCOCC2)ccc1OCc1ccccc1 | inactive
19 | O=C(CCC1CCCC1)Nc1cc(C(F)(F)F)ccc1N1CCOCC1 | active: 11.7 µM
20 | O=C(NCC1CCCO1)c1cccc(NC(=O)c2ccccc2)c1 (stereo not given) | inactive
21 | O=C(Nc1ccc(Oc2ccccc2)nc1)C1CCCCN1Cc1ccc(OCCO)cc1 (stereo not given) | inconclusive [inhibitor, partial curve, poor fit]
22 | COc1ccc(CCC(=O)N2CCN(S(=O)(=O)c3cccc(C(F)(F)F)c3)CC2)cc1OC | inconclusive [inhibitor, single point]

Row | Compound | Potency
23 | COc1ccc(Cc2c(Cl)ncnc2Cl)cc1 | inconclusive [inhibitor, partial curve]
24 | COc1ccc(NC(=O)c2cc(-c3ccccc3Cl)on2)cc1 | inconclusive [inhibitor, partial curve, poor fit]
25 | CCn1ccnc1CN1CCCC(C(=O)c2cc(F)ccc2OC)C1 (stereo not given) | inconclusive [inhibitor, single point]
26 | Cc1nc(-c2ccc(F)cc2)c(CC(=O)N2CCN(S(=O)(=O)c3cccc(Cl)c3)CC2)s1 | inconclusive [inhibitor, single point]
27 | CCc1ccc(NC(=O)CC2C(=O)N(c3cccc(C)c3)C(=O)N2C2CC2)cc1 (stereo not given) | inconclusive [inhibitor, single point]
28 | CCNC(=S)Nc1ccc(C)c(Cl)c1 | inactive
29 | COc1cc(CCC(=O)Nc2cnc3ccccc3c2)cc(OC)c1OC | inconclusive [inhibitor, partial curve]
30 | C=CCN1CC(C(=O)N2CCC(Cc3ccc(Cl)cc3)(C(=O)OCC)CC2)CC1=O (stereo not given) | inconclusive [inhibitor, partial curve, poor fit]
31 | COc1ccc(-c2csc(Nc3cccnc3)n2)cc1OC | inconclusive [inhibitor, single point]
32 | C(=N\N(c1ccccc1)c1ccccc1)/c1ccc(N2CCOCC2)s1 | inconclusive [inhibitor, partial curve, poor fit]
33 | Cc1ccc(NC(=O)CNc2ccc(OC(C)C)cc2)c(C)c1 | inconclusive [inhibitor, partial curve, poor fit]
34 | CCCCNc1nc2c(S(=O)(=O)c3ccccc3)nnn2c2ccccc12 | inconclusive [inhibitor, single point]
35 | Cc1ccc(Cl)cc1N1CCN(S(=O)(=O)c2c(C)[nH]c(C)c2C(=O)N2CCCC2)CC1 | inconclusive [inhibitor, single point]
36 | O=c1c2ccccc2cnn1Cc1ccc(Cl)c(Cl)c1 | inconclusive [inhibitor, partial curve]
37 | COc1cccc(NC(=O)CN(C)C(=O)COc2ccccc2Cc2ccccc2)c1 | inconclusive [inhibitor, partial curve, poor fit]
38 | CN(CCOc1ccc(Cl)cc1)C(=O)C1CCN(C(=O)c2ccc(Cl)cc2)CC1 | inconclusive [inhibitor, single point]
39 | Cc1ccc(C(=O)N/N=C\c2cc3c(cc2Br)OCO3)s1 | inconclusive [inhibitor, single point]
40 | CCN1CCN(c2ccc(NC(=O)CCc3c(C)nc4c(-c5ccc(F)cc5)c(C)nn4c3C)cc2)CC1 | inconclusive [inhibitor, full curve]
41 | O=C1C2=C(C(=O)c3ccccc31)C1O[C@](c3ccsc3)(Cc3c1ccc1ccccc31)O2 | inconclusive [inhibitor, single point]
42 | COc1ccc(C(=O)C2CCCN(C(=O)c3ccoc3C)C2)cc1F (stereo not given) | inconclusive [inhibitor, single point]
43 | COc1ccc(C(=O)N/C(=C\c2cccc3ccccc23)C(=O)NCCc2c[nH]c3ccccc23)cc1OC | active: 2.94 µM
44 | Cc1ccccc1CSCCNC(=O)c1ccc(Cl)c(S(=O)(=O)N2CCOCC2)c1 | active: 11.7 µM

Row | Compound | Potency
45 | CCN1CCN(c2nc(-c3ccccn3)nc3ccccc23)CC1 | inconclusive [inhibitor, full curve, poor fit]
46 | OC(COc1ccccc1CNCc1cccnc1)CN1CCc2ccccc2C1 (stereo not given) | inconclusive [inhibitor, single point]
47 | COc1ccc(N2CCN(CC(O)COc3ccccc3[N+](=O)[O-])CC2)cc1 (stereo not given) | inactive
48 | Cc1ccc(-c2cc(-c3ccc(C)cc3)[n+](-c3ccc(C(=O)[O-])cc3)c(-c3ccc(C)cc3)c2)cc1 | active: 3.7 µM
49 | CCn1c(NC(=O)C(C)C)c(-c2ccccc2)c(=O)c2ccccc21 | inconclusive [inhibitor, full curve, poor fit]
50 | O=C(CCCn1c(=O)[nH]c2ccccc2c1=O)NCCSCc1ccccc1 | inconclusive [inhibitor, single point]
51 | CCN(CC)S(=O)(=O)c1ccc(C(=O)NCc2n[nH]c(=S)n2Cc2ccccc2)cc1 | inconclusive [inhibitor, partial curve, poor fit]
52 | COc1ccc(CNC(=O)COc2cc3c(c4oc(=O)cc(C)c24)CCC(C)(C)O3)cc1OC | active: 10.4 µM
53 | CN(Cc1ccccc1)c1nc(N)c([N+](=O)[O-])c(NCc2ccccc2)n1 | inconclusive [inhibitor, single point]
54 | CCSc1ncc(Cl)c(C(=O)Nc2ccc(S(=O)(=O)Nc3ncccn3)cc2)n1 | inactive
55 | Cc1nn(C(C)C(=O)N2CCc3ccccc32)c(C)c1[N+](=O)[O-] (stereo not given) | inconclusive [inhibitor, partial curve, poor fit]
56 | CCCCCC(=O)Nc1cccc(C2=NOC3(C2)C[C@@H](C(N)=O)N(C(=O)c2ccc(OC)cc2)C3)c1 (stereo not given in full) | inconclusive [inhibitor, single point]
57 | CCc1ccc(CNC(=O)CCCn2nc(C)n3ccnc3c2=O)cc1 | inactive
58 | Cc1ccc2c(c1)C(c1ccccc1)N(C(=O)c1ccc(F)cc1)CC(=O)N2 (stereo not given) | inconclusive [inhibitor, partial curve, poor fit]
59 | CCc1ccc(NC(=O)CSc2ccc(-c3cccnc3)nn2)cc1 | inconclusive [inhibitor, single point]
60 | CCC(NC(=O)Nc1ccc(O)cc1)(C(F)(F)F)C(F)(F)F | inconclusive [inhibitor, single point]
61 | CC1CCCCC1NC(=O)c1cccc(S(=O)(=O)N2CCN(Cc3ccccc3)CC2)c1 (stereo not given) | active: 16.5 µM
62 | CC1(C)C2CCC1(C)C(OCCNCCOC(=O)Nc1ccccc1)C2 (stereo not given) | inconclusive [inhibitor, single point]
63 | O=C(N/N=C/c1ccncc1)C1C2CCCCCCC21 (stereo not given) | inconclusive [inhibitor, partial curve, poor fit]
64 | Nc1cc(=O)[nH]c(SCC(=O)N2CCC(Cc3ccccc3)CC2)n1 | inconclusive [inhibitor, single point]
65 | O=C(NCCC1=CCCCC1)C1CCN(Cc2cnn(-c3ccccc3)c2-n2cccc2)CC1 | inconclusive [inhibitor, single point]
